Results on one molecule are retold here after patent US20250375530A1 (ALMAC DISCOVERY, published 2025).

The assay addresses T1, human ROR1-Fc (CHO) (human).
T1 construct: also called hROR1-Fc; huROR1-Fc
The experiment in a line: BLI, hROR1; MMAE conjugate. For orientation: Biolayer interferometry detects binding as a change in optical thickness at a sensor tip.

B1: BA11-G3CP MA-vc-PAB-MMAE conjugate (Cys linker) (VNAR, not shown: small tags and cut ends)
chain: TRVDQSPSSLSASVGDRVTITCVLTDTSYPLYSTYWYRKNPGSSNKEQISISGRYSESVNKGTKSFTLTISSLQPEDSATYYCRAMSTNIWTGDGAGTKVEIKPGVQPCPGGGGG[skipping about 120 residues]
modifications: MA-vc-PAB-MMAE on the single cysteine of the linker …
notes: DAR 1.0
The Kd is the free concentration of one partner at which half of the binding sites on the other are occupied at equilibrium, for simple one-to-one binding. The molecule B1 returned a Kd of 0.54 nM.
